The campaign covered roughly 16,000 compounds. About 120 (0.75%) were called active. Roughly 4% stayed inconclusive and do not appear here. The call rests on the fitted dose curve; in most records, active means well fitted inhibition curve with a large enough effect; inconclusive means small, poorly fitted or top-dose-only effect; inactive means no such curve, though single readings can be large or run the other way. The list shows a part of the results.
What follows are compounds tested against Rap guanine nucleotide exchange factor 3 (Homo sapiens) (UniProt O95398) (assay: Validation qHTS for antagonist of cAMP-regulated guanine nucleotide exchange factor 3 (EPAC1)). Settings: EPAC1 Rap1B-BODIPY-GDP exchange, fluorescence; series mostly up to 150 µM; activity change, negative = inhibition: at the top concentration.
Chain of UniProt O95398 (O95398 whole entry, looked up): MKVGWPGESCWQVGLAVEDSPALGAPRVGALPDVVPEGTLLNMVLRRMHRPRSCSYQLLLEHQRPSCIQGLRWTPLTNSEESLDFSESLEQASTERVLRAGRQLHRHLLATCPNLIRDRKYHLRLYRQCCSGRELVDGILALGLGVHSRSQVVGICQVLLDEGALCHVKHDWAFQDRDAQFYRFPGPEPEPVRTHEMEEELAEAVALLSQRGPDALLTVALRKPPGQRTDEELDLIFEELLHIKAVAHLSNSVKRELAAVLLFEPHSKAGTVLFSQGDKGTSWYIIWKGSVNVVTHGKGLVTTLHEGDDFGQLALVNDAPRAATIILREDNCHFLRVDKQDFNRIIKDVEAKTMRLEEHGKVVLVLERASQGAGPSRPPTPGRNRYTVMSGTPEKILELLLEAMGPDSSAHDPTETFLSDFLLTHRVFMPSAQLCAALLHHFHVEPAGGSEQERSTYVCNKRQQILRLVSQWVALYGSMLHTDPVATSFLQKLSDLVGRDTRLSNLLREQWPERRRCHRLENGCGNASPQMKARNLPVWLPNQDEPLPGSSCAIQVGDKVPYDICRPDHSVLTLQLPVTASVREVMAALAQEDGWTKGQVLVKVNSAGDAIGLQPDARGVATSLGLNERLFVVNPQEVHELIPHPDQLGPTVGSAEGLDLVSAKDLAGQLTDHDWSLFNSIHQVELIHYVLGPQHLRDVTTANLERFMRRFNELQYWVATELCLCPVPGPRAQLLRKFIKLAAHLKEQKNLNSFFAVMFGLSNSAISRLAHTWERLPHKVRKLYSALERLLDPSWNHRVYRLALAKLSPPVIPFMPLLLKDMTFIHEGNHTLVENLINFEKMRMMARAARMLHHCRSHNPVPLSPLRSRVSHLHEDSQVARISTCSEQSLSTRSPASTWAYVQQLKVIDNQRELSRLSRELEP
From the text: Assay Provider (PI): Xiaodong Cheng Ph.D.
The University of Texas Medical Branch, […], TX
In multi-cellular eukaryotic organisms, the effects of cAMP are transduced by two ubiquitously-expressed intracellular cAMP receptors, the classic protein kinase A/cAMP-dependent protein kinase (PKA/cAPK) and the more recently discovered exchange protein directly activated by cAMP/cAMP-regulated guanine nucleotide exchange factor (EPAC/cAMP-GEF). Both PKA and EPAC are ubiquitously expressed in all tissues, and an increase in intracellular cAMP levels will lead to the activation of both PKA and EPAC. Therefore, careful dissections of the individual role and relative contribution of EPAC and PKA within the overall cAMP signaling in various model systems are critical for further elucidating the mechanism of cAMP signaling. To date no EPAC-specific antagonists and agonist, as well as isoform-specific agonists have been reported, and developing EPAC-specific pharmacological probes to determine the physiological functions that EPAC play in the overall cAMP-mediated signaling remains a major challenge within the research field. Furthermore, identified regulators of EPAC may lead to new mechanism-based therapeutic strategies specifically targeting the EPAC / cAMP-signaling components as EPAC has been implicated to play important roles in major human pathological conditions such as diabetes, heart disease, and cancer.
This qHTS will be used to screen the Molecular Libraries Small Molecule Repository (MLSMR) as a concentration-titration series using the NCGC unique quantitative screening (qHTS) platform to find activators for EPAC1. In addition, this assay will also be used as a counterscreen for the EPAC2 qHTS. This fluorescent based assay is developed and validated for EPAC1 that measures exchange using EPAC effector Rap1 complex with BODIPY-GDP, a GDP analog with a tethered fluorophores. Activators are identified by monitoring the change in fluorescence signal as the exchanged free BODIPY-GDP has a reduced fluorescence compared to Rap1-bound BODIPY-GDP. Increase in signal (activation) is the desired outcome for the EPAC1 agonist while no activity in this assay is desired for the EPAC2 agonist counterscreen.
[1] de Rooij, J., Zwartkruis, F. J., Verheijen, M. H., Cool, R. H., Nijman, S. M., Wittinghofer, A., and Bos, J.L. (1998) Nature 396, 474-477.
Briefly, three uL of reagents (100 nM EPAC1, 250 nM RAP1B-BODIPY-GDP, 50 uM GDP) were dispensed into a 1536-well Greiner black solid-bottom medium binding assay plate. Controls and test compounds (23 nL) were transferred to the plate via a Kalypsys pin tool equipped with a 1536-pin array. The plates were centrifuged at 1,000 rpm for 15 seconds followed by 5 minute incubation at room temperature. The assay plates were read at 5 minute intervals for 30 minutes in the ViewLux plate reader using 480nm excitation and 540nm emission filters. The results were normalized to the […] positive control ATA and DMSO.
Further: nearly all actives have a fitted effect of over 75% in size.
Potency means the concentration at half of the fitted maximal effect.

| Structure (SMILES) | activity change, negative = inhibition | Potency |
| --- | --- | --- |
| CNc1cc(-c2ccccc2C)ncn1 | inactive: 13% | – |
| O=C(O)COc1cccc(-c2ocnc2-c2nc(-c3ccccc3)c(-c3ccccc3)o2)c1 | inactive: -13.6% | – |
| CCN1\C(=C/C=C/C=C/c2sc3ccccc3[n+]2CC)Sc2ccccc21 | inactive: -20.6% | – |
| CNc1ccnc(-c2ccccc2CN(C)C)n1 | inactive: 0.0893% | – |
| [O]=[Bi][O][Bi]=[O] | inactive: -8.6% | – |
| Cc1cnc(-n2ncc(C(=O)NCC(C)(C)N3CCOCC3)c2C)nc1-c1cccs1 | inactive: 12.4% | – |
| S=C=Nc1ccc(N=C=S)cc1 | inactive: 17.2% | – |
| O=C(O)COc1nn(Cc2ccccc2)c2ccccc12 | inactive: 20.3% | – |
| COc1cccc(Nc2ncc3nc(-c4ccc(Cl)cc4)c(=O)n(C4CC4)c3n2)c1 | inactive: 18.1% | – |
| CO[C@]12CC(COC(=O)c3cncc(Br)c3)CN(C)[C@@H]1Cc1cn(C)c3cccc2c13 (stereo partly specified) | inactive: 6% | – |
| CN1CCC2(CCN3CCc4c(oc5ccccc45)C3C2)N(C)C1=O (stereo unspecified) | inactive: 2.96% [at 75.8 µM] | – |
| Cc1noc(C)c1-c1nc(NCCN2CCOCC2)c2ccccc2n1 | inactive: 15.1% | – |
| O=c1cc(-c2ccccc2O)oc2cc(O)cc(O)c12 | inactive: 15.4% | – |
| O=C(NCCN1CCOCC1)c1cnn(-c2nccc(-c3cc4ccccc4o3)n2)c1C1CC1 | inactive: 14.1% | – |
| NC(=O)c1ccc(-c2nc(-c3ccc4c(c3)OCO4)c(-c3ccccn3)[nH]2)cc1 | inactive: 6.09% | – |
| COc1ccc(/C=C/C(=O)c2cccs2)cc1OC | inactive: 10.7% | – |
| COC(=O)[C@@H]1CCCN1Cc1ccc2c(c1)CN(Cc1ccc(OC)c(C)c1)CCO2 | inactive: 6.61% | – |
| C[N+]12CCC(CC1)C(OC(=O)C(O)(c1ccccc1)c1ccccc1)C2 (stereo unspecified) | inactive | – |
| CN(C)C(=O)c1ccc(-c2cncnc2N2CCNCC2)cc1 | inactive: -7.19% | – |
| O=C(c1cc(C(F)(F)F)cc(C(F)(F)F)c1)N1CCC2(CC1)CN(c1ccncc1)C2 | inactive: 12.6% | – |
| Nc1ncnc2c1ncn2[C@@H]1O[C@H](COP(=O)(O)O)[C@@H](O)[C@H]1O | inactive: -2.32% | – |
| O=C1CCN(Cc2ccccc2)CCN1[C@H](COc1ccccc1)Cc1ccccc1 | inactive: -6.82% | – |
| Cc1ccccc1-c1nc(N2CCNCC2)c2ccccc2n1 | inactive: 5.51% | – |
| Cc1cc(C)cc(CN2CCc3nnc(C(NS(C)(=O)=O)C(C)C)n3CC2)c1 (stereo unspecified) | inactive: 9.36% | – |
| COC(=O)[C@@H]1CCCN1C(=O)c1c(OC)cc(=O)n2c1CCN(Cc1ccc3cccnc3c1)CC2 | inactive: 10.1% | – |
| NCCc1ccn[nH]1 | inactive: 14.7% [at 75.8 µM] | – |

| Structure (SMILES) | activity change, negative = inhibition | Potency |
| --- | --- | --- |
| COc1ccc(-c2cn(Cc3ccc(C(=O)c4ccccc4)cc3)nn2)cc1 | inactive: -6.67% | – |
| OC(CN1CCCCC1)c1cc(-c2ccccc2)on1 (stereo unspecified) | inactive: 11.2% | – |
| NC(=O)c1ncn([C@@H]2O[C@H](CO)[C@@H](O)[C@H]2O)c1N | inactive: 12.4% | – |
| CNc1nc(-c2ccoc2)nc2ccccc12 | inactive: 9.86% | – |
| C=C1CCC2C(CC2(C)C)C(=C)CC/C1=N/O (stereo unspecified) | inactive: 6.1% | – |
| COc1cc2c(cc1OC)[C@@H](c1ccccc1)CN(C)CC2 | inactive: 15% | – |
| CC1=C(/C=C/C(C)=C/C=C/C(C)=C/C(=O)Nc2ccc(O)cc2)C(C)(C)CCC1 | inactive | – |
| CC(C)CN1CCC2(CC1)CCN(S(=O)(=O)c1ccccc1)CC2 | inactive: 19.7% | – |
| CC(c1cc2ccccc2s1)N(O)C(N)=O (stereo unspecified) | inactive: -3.84% | – |
| COc1ccccc1CN1CCC2(CC1)CCN(C(=O)c1cc(C(F)(F)F)cc(C(F)(F)F)c1)CC2 | inactive: 5.68% | – |
| COc1ccc(-n2c(=O)cnc3cnc(OC)nc32)cc1 | inactive: 11% | – |
| CC(=O)N1CCC[C@H]1C(=O)N1CCc2c(cnc(C)c2CNC(=O)/C=C/c2cccs2)C1 | inactive: -16.5% | – |
| COc1cccc(C(=O)NCC2Cc3cccc(-c4ncccn4)c3O2)c1OC (stereo unspecified) | inactive: 12% | – |
| CC[N+](C)(CC)CC(=O)Nc1c(C)cccc1C | inactive: 16.4% | – |
| Cc1cccc(C)c1NC(=O)NC1=CCCN1C | inactive: 10% | – |
| NS(=O)(=O)c1ccc(NC(=O)CCC(=O)O)cc1 | inactive: 7.29% | – |
| CCn1c(C)nc2cc(NS(=O)(=O)c3ccccc3)cc(C(=O)N3C[C@@H](C)O[C@@H](C)C3)c21 | inactive: 6.21% | – |
| COc1cccc(-c2ccc3ncnc(NC4CCNCC4)c3c2)c1 | inactive: 18.1% | – |
| O=C(O)c1cc(O)c2c(c1)[C@H]([C@H]1c3cc(C(=O)O)cc(O)c3C(=O)c3c(O[C@@H]4O[C@H](CO)[C@@H](O)[C@H](O)[C@H]4O)cccc31)c1cccc(O[C@@H]3O[C@H](CO)[C@@H](O)[C@H](O)[C@H]3O)c1C2=O | – | active: 100 µM |
| Cn1c(SCC2CCCO2)nnc1C1CCN(Cc2ccco2)CC1 (stereo unspecified) | inactive: 12.5% | – |
| COc1ccc(/C=C/C(=O)N2CCc3c(cnc(C)c3CNS(=O)(=O)c3cccs3)C2)cc1 | inactive: -0.679% | – |
| Cc1nc2cncnc2n(Cc2ccccc2)c1=O | inactive: 1.36% | – |
| CC(=O)Oc1cc(C(C)C)c(OCCN(C)C)cc1C | inactive | – |
| COCC(=O)N1CCC2(CCCN(C(=O)Nc3cccc(C#N)c3)C2)CC1 | inactive: 10.6% | – |
| O=C(O)[C@H]1C(=CCO)O[C@H]2CC(=O)N12 | inactive: 20.4% | – |

From PubChem BioAssay AID1645882 (National Center for Advancing Translational Sciences (NCATS), 2021)
